The other results are listed elsewhere or left out.
Test system: T1, C. trachomatis L2/434/Bu expressing GFP (CTL2-GFP)
T1 construct: L2/434/Bu GFP intracellular growth in HeLa cells
Set-up: species or system HeLa; C. trachomatis total inclusion area by high-content imaging, normalised to DMSO
Settings: total inclusion area; 28.5 h, 10 µM; inhibitor
Method in brief: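 After bulk GFP and resorufin fluorescence reads, cells were fixed, stained with Hoechst and imaged by high-content microscopy. Inclusion area and number (GFP) stood in for chlamydial growth, nuclei count (Hoechst) for host cell viability. MICs were derived as for the bulk readout.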

| SMILES | % of control remaining |
| --- | --- |
| CSc1nnc(-c2cccc(C)c2)n1CC(C)C [CBK076764T] | 21.4185 |
| O=C(NCc1ccco1)c1cnoc1-c1ccc(F)cc1 [CBK154960] | 85.9353 |
| CC(C)CN(Cc1ccc2c(c1)OCO2)C(=O)NCc1ccc2c(c1)OCO2 [CBK159071] | 100.518 |
| O=c1cc(-c2ccccc2)nc(N2CCOCC2)[nH]1 [CBK003840] | 89.115 |
| CCN(CC)C(=O)Cc1ccc(NC(=O)NCc2cnn(C)c2)cc1 [CBK304918] | 35.2523 |
| O=C(c1cc[nH]n1)N1CCOCC1 [CBK027868] | 107.191 |
| Cn1c(=O)oc2ccccc2c1=O [CBK015658] | 49.0959 |
| CN(C)CCN(C)c1cncc(-c2cccs2)n1 [CBK065679] | 106.993 |
| CCCCc1noc(C(C)S(=O)(=O)Cc2csc(CCCC)n2)n1 (stereo not shown) [CBK305431] | 96.4362 |
| COc1cc(F)ccc1-c1ccnc2[nH]c(=O)ccc12 [CBK073727] | 99.0454 |
| Cc1ccc(C2(CN3CCN(CC4CCOC4)CC3)CC2)cc1 (stereo not shown) [CBK282479] | 108.016 |
| Cc1ccc(C2Nc3ccccc3C3=NCCCN32)o1 (stereo not shown) [CBK284488] | 46.7753 |
| CC(C)Cc1cc(CNC(=O)C(C)n2cc(Cl)cn2)on1 (stereo not shown) [CBK281524] | 101.549 |
| CCn1cc(C(=O)O)c(=O)c2cc(F)c(N3CCN(C(=S)Nc4ccc(F)c(Cl)c4)CC3)cc21 [CBK267921] | 108.988 |
| c1coc(-c2nccnc2NCc2cccs2)c1 [CBK037340] | 105.63 |
| COc1ccc([C@@]23CCC(NC(=O)Nc4ccc(OCc5ccccc5)cc4)C[C@@H]2N(C)CC3)cc1OC (stereo partly shown) [CBK047551T] | 90.3834 |
| CCN(CC)CCn1c2ccc(C)cc2c2nc(C)sc21 [CBK269764C] | 26.8339 |
| CCCCCOc1ccc(Nc2ccc(-c3cc4ccccc4o3)cn2)cc1 [CBK036828] | 89.3181 |
| O=C(NC1(C(F)(F)F)NC(=O)N(CCc2ccccc2)C1=O)c1ccco1 (stereo not shown) [CBK267482] | 88.9798 |
| Cc1ccc2c(c1)C1(CC(=O)N(C)C1=O)C(=O)N2CCCOc1ccccc1 (stereo not shown) [CBK075496] | 107.933 |

| SMILES | % of control remaining |
| --- | --- |
| N#Cc1ccsc1NC(=O)CN1CCN(c2cccc(Cl)c2)CC1 [CBK306192] | 51.876 |
| O=C(/C=C/c1ccc2c(c1)OCO2)NCCSCc1c(F)cccc1Cl [CBK265239] | 86.551 |
| O=C1CSC(c2cn(-c3ccccc3)nc2-c2ccc(Br)cc2)N1Cc1ccccc1 (stereo not shown) [CBK263146] | 107.12 |
| CC(C)(c1ccccc1)c1ccc(OCCOc2ccc(/C=C3\SC(=S)NC3=O)cc2)cc1 [CBK264378] | 109.944 |
| CC1(C(=O)O)CC(C)(C(=O)O)CC(C)(C(=O)O)C1 (stereo not shown) [CBK266107] | 77.4244 |
| Cc1nc2sccn2c(=O)c1NC(=O)c1ccccn1 [CBK287665] | 80.7509 |
| COc1ccc(-c2cnc(N)nc2C2CCCN(C(=O)CCCc3ccccc3)C2)cc1 (stereo not shown) [CBK286091] | 102.396 |
| COc1ccc(OCC(=O)N2CCN(S(=O)(=O)c3ccccc3[N+](=O)[O-])CC2)cc1 [CBK264213] | 106.219 |
| CN(C)CC1CCCCN1S(=O)(=O)c1ccc(C(C)(C)C)cc1 (stereo not shown) [CBK051347] | 113.871 |
| Cc1noc(C)c1C(=O)NCCc1ccc(S(N)(=O)=O)cc1 [CBK268143] | 104.124 |
| NC(=O)CCNC(=O)c1ccc2[nH]ccc2c1 [CBK149082] | 96.3434 |
| CO/N=C\c1c(CO)cnc(C)c1O [CBK022776] | 77.1181 |
| CC(=O)NS(=O)(=O)c1ccc(Nc2ccc([N+](=O)[O-])c3nonc23)cc1 [CBK261443] | 96.3868 |
| CC(C)(C)c1n[nH]c(C2CN(C(=O)CCc3cscn3)CCO2)n1 (stereo not shown) [CBK305205] | 7.559 |
| CC(=O)c1ccc(-c2cnc(N)c(N3CCC[C@@H]3CO)n2)s1 [CBK063438] | 105.78 |
| CC(=O)Nc1nc(-c2ccccc2C)ccc1C(=O)NC1CCCCC1 [CBK106327] | 108.723 |
| Cc1c(Cl)cccc1S(=O)(=O)Nc1c(C(=O)N2CCOCC2)[nH]c2ccccc12 [CBK050076] | 102.407 |
| O=C1NN(c2ccc(F)c(Cl)c2)C(=O)/C1=C/c1ccc(-c2ccc(Cl)cc2)o1 [CBK095978] | 62.2634 |
| CCOCCn1cnc2sc(C(=O)NCc3ccccn3)c(C)c2c1=O [CBK071857] | 106.207 |
| CN1C(=O)/C(=C2\SC(=S)N(C(CC(=O)O)C(=O)O)C2=O)c2ccccc21 (stereo not shown) [CBK261012] | 64.6544 |

Reference: publication PMC12040169 (PLOS Biology, 2025)
